Activation data for 81 molecules are collected here from PubChem BioAssay AID1346428 (National Center for Advancing Translational Sciences (NCATS), 2018).

Molecules are shown by their SMILES. “And” between values parts separate entries of the source, which are not always exact repeats. Equal values may be shown once. Hit rate of the full screen: of about 48,000 compounds, about 1,200 (2.5%) were called active. Not shown: some 2% with an inconclusive outcome.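 How the source made its calls: active means activation of at least 60% and not above a set upper limit (about 1 call in 100 departs from these limits); inconclusive means activation of 40% to 60%, or above that upper limit; inactive means activation under 40%.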 Some of the results follow.

Chain of UniProt O75388 (O75388 whole entry, looked up): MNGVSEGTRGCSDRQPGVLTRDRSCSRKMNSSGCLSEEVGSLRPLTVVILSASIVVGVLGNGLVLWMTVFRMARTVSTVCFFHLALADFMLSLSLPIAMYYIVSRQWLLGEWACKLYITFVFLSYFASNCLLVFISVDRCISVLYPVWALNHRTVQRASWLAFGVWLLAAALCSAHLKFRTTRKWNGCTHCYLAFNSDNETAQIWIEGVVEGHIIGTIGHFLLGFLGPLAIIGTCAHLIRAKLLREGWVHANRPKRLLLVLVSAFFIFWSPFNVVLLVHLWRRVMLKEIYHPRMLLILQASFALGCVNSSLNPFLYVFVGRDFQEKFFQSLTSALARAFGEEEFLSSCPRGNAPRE

This assay has as its target Probable G-protein coupled receptor 32 (Homo sapiens) (UniProt O75388). The assay is described as follows: qHTS for Agonists of Human Resolvin D1 Receptor DRV1. Further: 0% is about no effect. Particulars: CHO-K1 GPR32 beta-arrestin PathHunter luminescence, 90 min; at 76.9 µM; stronger effect = higher value; zero percent set by DMSO-only wells. Summed up:
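Readings come from a cell-based beta-arrestin complementation format: CHO-K1 GPR32 stable cells (2,500/well) treated 90 min with compounds, then beta-Gal substrate added for 1 h before chemiluminescence imaging.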
For orientation: qHTS replaces the single test concentration by a dilution series.
For the molecule `COc1ccc(N2CCN(C(=O)c3cc4c(=O)n(Cc5cccs5)ccc4nc3C)CC2)cc1`, the activation is inactive: -29.9%.

Consider `Cc1cc(Cl)ccc1NC(=O)C1CCN(S(=O)(=O)c2ccc3[nH]c(=O)ccc3c2)CC1`, for which the activation is inactive: -1.73%.

`COc1cccc(NC(=O)c2sc3nc(C)c(C(=O)Nc4ccc(C)cc4C)c(-c4ccc(Br)cc4)c3c2N)c1`: the activation is inactive: 19.1%.

In the case of `Cc1cccc(Cn2c(=O)n(CCc3ccccc3)c(=O)c3sc4ccccc4c32)c1`, the activation is inactive: -6.49%.

Regarding `Cc1ccc(CCNC(=O)CCSCc2ccccc2F)cc1`, the activation is inactive: -25.5%.

On to `CN1C2CCC1CC(OC(c1ccccc1)c1ccccc1)C2` (stereo unspecified), for which the activation was inactive: -6.32%.

On to `Cc1ccc(C2c3[nH]c4ccccc4c3CCN2C(=O)c2ccc(N(C)C)cc2)cc1` (stereo unspecified), for which the activation is inactive: -34.3%.

With `O=C(CCOc1ccccc1)N(Cc1cccnc1)c1nc2c(Cl)cccc2s1`, the activation is inactive: 1.58%.

`CCOC(=O)c1cc(-c2ccccc2)nn1Cc1ccccc1`: the activation is inactive: -10.1%.

For `CCOC(=O)N1CCc2c(sc3c2c(=O)n(Cc2ccccc2)c(=O)n3CC(=O)Nc2ccccc2F)C1`, the activation was inactive: -16%.

On to `COc1ccc(C)cc1NC(=O)C(CCSC)NS(=O)(=O)c1ccc2c(c1)oc(=O)n2C` (stereo unspecified), for which the activation is inactive: -16.9%.

Take `CCn1nnc2cc(C(=O)Nc3cccc(C(F)(F)F)c3)ccc21`: the activation was inactive: 6.31%.

Consider `Cc1ccc2oc(C(=O)Nc3c(C(=O)c4ccc(C)c(F)c4)oc4ccccc34)cc(=O)c2c1`, for which the activation was inactive: -1.53%.

For `O=S(=O)(Nc1c(F)cccc1F)c1ccc2c(c1)OCCO2`, the activation is inactive: -3%.

As to `COc1ccc(CN(C(=O)Nc2ccccc2)c2ccccn2)cc1OC`, the activation is inactive: -23.7%.

For `CCOC(=O)c1c(C)[nH]c(CCC(=O)Nc2ccc(N(CC)CC)cc2C)c1C`, the activation is inactive: 8.35%.

For the molecule `CC(C)NC(=O)c1cnc2sc(N3CCCCCC3)nn2c1=O`, the activation is inactive: -0.0224%.

As for `Cc1ccc(S(=O)(=O)N(Cc2nc(-c3ccc(Cl)cc3)no2)C2CCCCC2)cc1`, the activation is inactive: -24.7%.

For the molecule `COc1ccc(NC(=O)CCS(=O)(=O)c2nc(-c3cccs3)cc(C(F)(F)F)n2)cc1OC`, the activation is inactive: -18.4%.

In the case of `COc1ccc(N(C(=O)/C=C\C(=O)Nc2ccc(Cl)cc2)C(C(=O)NCc2ccco2)c2ccc(C)cc2)cc1` (stereo unspecified), the activation is inactive: -19.4%.

In the case of `COc1ccc(OC)c(S(=O)(=O)Nc2cc3c(cc2C)n(C)c(=O)c(=O)n3C)c1`, the activation was inactive: 1.45%.

Turning to `CN(Cc1ccccc1)C(=O)CN1C(=O)CSc2ccc(S(=O)(=O)N3CCOCC3)cc21`, the activation was inactive: -16.6%.

As for `COc1ccccc1NC(=O)Cn1c(=O)n(Cc2ccc3c(c2)OCO3)c(=O)c2oc3ccccc3c21`, the activation is inactive: -22.8%.

Turning to `CCc1ccc(-c2cn3c(n2)sc2cc(C(=O)NCCc4ccc(OC)cc4OC)ccc23)cc1`, the activation was inactive: -3.01%.

In the case of `O=C(c1noc2c1CCCCC2)N1CCN(c2ccc(Cl)cc2)CC1`, the activation is inactive: -21.5%.

With `C#CC(C)(C)NS(=O)(=O)c1cc(-c2nnc(Nc3ccc(C)cc3)c3ccccc23)ccc1C`, the activation was inactive: 43.1%.

For the molecule `Cc1ccc(NC(=O)CN(c2ccccc2)S(=O)(=O)N(C)C)cc1Cl`, the activation was inactive: 43.1%.

Turning to `Cc1ccc(NC(=O)NCc2ccc3c(c2)CCN3C(=O)c2ccccc2)c(Cl)c1`, the activation is inactive: -14.2%.

As to `COc1ccc(NC(=O)c2cn(CC(C)C)c(=O)c3cc(OC)c(OC)cc23)cc1Cl`, the activation was inactive: -3.22%.

As to `NS(=O)(=O)c1ccc(CCNC(=O)CCCCCn2c(=O)[nH]c3ccccc3c2=O)cc1`, the activation is inactive: -11.1%.

On to `Cc1ccc(NC(=O)c2nn(C)c3c2CS(=O)(=O)c2ccccc2-3)c(Cl)c1`, for which the activation is inactive: -9.21%.

For the molecule `COc1ccc(-c2nc3c(c(SCC(=O)Nc4ccc(C(=O)O)cc4)n2)Cc2ccccc2O3)cc1`, the activation was inactive: -8.47%.

As for `CCOC(=O)Cc1ccc(NC(=O)Nc2cccc(OCc3cc(=O)n4cc(C)ccc4n3)c2)cc1`, the activation was inactive: -7.62%.

With `O=C(CCCCCn1c(=O)c2sccc2n(CC(=O)Nc2cccc(Cl)c2)c1=O)NCc1ccc2c(c1)OCO2`, the activation is inactive: -12.8%.

As for `Oc1c(C(c2ccccc2)N2CCC3(CC2)OCCO3)sc2nc(-c3ccco3)nn12` (stereo unspecified), the activation is inactive: -13.6%.

In the case of `Cc1nc(N2CCOCC2)c2c(C(=O)NCc3cccc(Cl)c3)c(C)oc2n1`, the activation was inactive: -12.9%.

For the molecule `COc1cccc(C(=O)NC2(C(F)(F)F)C(=O)Nc3c2c(=O)[nH]c(=O)n3-c2ccc(C)cc2)c1` (stereo unspecified), the activation was inactive: -5.74%.

`CCc1c(C)sc2c1CCN(C(=O)Nc1cc(OC)c(OC)c(OC)c1)C2c1ccccc1` (stereo unspecified): the activation is inactive: 2.98%.

For the molecule `CCc1cccc(NC(=O)CSc2ncc3c(n2)-c2ccc(Cl)cc2N(Cc2ccccc2)S3(=O)=O)c1`, the activation was inactive: 1.99%.

Turning to `CCCCOc1ccc(CNC(=O)CN2CCSc3ccccc32)cc1`, the activation was inactive: -39.1%.

Take `Cc1ccc(CCNC(=O)c2nn(C)c3c2CSc2ccccc2-3)cc1`: the activation was inactive: -1.95%.

In the case of `O=S(=O)(c1ccc(Br)cc1)c1nc(-c2ccco2)oc1SCc1ccccc1Cl`, the activation is inactive: -17.6%.

For `NC/C=C\C(=O)O`, the activation was inactive: -0.562%.

With `CCC(C(=O)N1CCN(c2cccc(C)c2C)CC1)n1nc(C)c2sc3ccccc3c2c1=O` (stereo unspecified), the activation is inactive: -17.7%.

`CCCNC(=O)C1CCC(Cn2c(=O)c3sccc3n(Cc3cccc(OC)c3)c2=O)CC1` (stereo unspecified): the activation is inactive: -1.63%.

In the case of `CCn1nnc2cc(C(=O)Nc3cccc(Cl)c3)ccc21`, the activation was inactive: -6.66%.

As for `Cc1nc2nc(NC(=O)c3cccc(Cl)c3)[nH]n2c(=O)c1Cc1ccccc1`, the activation is inactive: 30.8%.

As for `COc1cccc(CNC(=O)CCn2c(=O)c3cccn3c3ccc(F)cc32)c1OC`, the activation is inactive: -12.3%.

Take `COc1ccc(-n2nc(C(=O)N(C)c3cccc(C(F)(F)F)c3)c3c4ccccc4n(C)c3c2=O)cc1`: the activation is inactive: -16.4%.

`Cc1ccc(NC(=O)CCn2c(=O)c3cccn3c3ccccc32)c(Cl)c1`: the activation was inactive: -17.2%.

Regarding `COc1ccc(CCNC(=O)CCc2c(C)nc3c(c(C)nn3-c3ccc(C)c(C)c3)c2C)c(OC)c1OC`, the activation is inactive: 22.3%.

Regarding `CCOc1ccc(-n2c(-c3ccc(C)cc3)nc3c(cnn3-c3ccccc3)c2=O)cc1`, the activation was inactive: -1.15%.

With `CCOC(=O)C1CCC(CN(Cc2ccccc2)S(=O)(=O)c2ccc(Cl)cc2)CC1` (stereo unspecified), the activation is inactive: -25.6%.

Take `COc1ccc(CCNC(=O)Cn2cc(C(=O)c3ccccc3)c(=O)c3ccc(C)nc32)cc1OC`: the activation is inactive: -5.87%.

On to `CCOC(=O)c1c(S(=O)(=O)N2CCC(C(=O)Nc3ccccc3OC)CC2)c(C)n(CC)c1C`, for which the activation is inactive: -5.93%.

For the molecule `Cc1cc(C)c(Cn2c3ccccc3c3cnn(CC(=O)N4CCCCC4)c(=O)c32)c(C)c1`, the activation was inactive: -7.91%.

Regarding `Cc1ccccc1C(=O)Nc1ccccc1C(=O)OCc1cc(=O)n2ccsc2n1`, the activation is inactive: 10.2%.

Consider `CN1C(=O)CC(=O)N(C)c2cc(S(=O)(=O)N(C)Cc3ccccc3)ccc21`, for which the activation is inactive: 6.77%.

`CCn1cc(C(=O)NCCc2ccc(C)cc2)c(=O)c2cc(S(=O)(=O)N(C)C)ccc21`: the activation is inactive: -6.63%.

Regarding `CCOc1ccc(OCC)c(Nc2nc3ccccc3c3nnc(C)n23)c1`, the activation is inactive: -8.58%.

Turning to `Cc1ccc2c(c1)c1c(c(=O)n(-c3ccccc3)c(=O)n1CC(=O)N1CCCC1)n2C`, the activation is inactive: -16%.

`COc1cccc(N2CC(NC(=O)Cc3cccs3)CC2=O)c1` (stereo unspecified): the activation was inactive: -4.11%.

As for `Cc1c(Cl)cccc1NS(=O)(=O)c1ccc2[nH]cc(C(=O)NC3CCCC3)c(=O)c2c1`, the activation was active: 101%.

In the case of `CCCCN(CCCC)CCNC(=O)c1cn(C)c2ccc(S(=O)(=O)N3CCOCC3)cc2c1=O`, the activation was inactive: -4.54%.

For `CC(=O)c1cccc(NS(=O)(=O)c2ccc3[nH]c4c(c3c2)CCCCCC4)c1`, the activation was active: 100%.

Take `Cc1ccc(-n2ncc(C(=O)NCCN3CCN(C)CC3)c2C2CCN(C(=O)OC(C)(C)C)CC2)c(C)c1`: the activation was inactive: -6.28%.

Turning to `Cc1ccc(S(=O)(=O)c2nc(-c3cccs3)oc2N2CCCCC2)cc1`, the activation was inactive: -2.2%.

In the case of `COc1ccc2c(c1)c1c(c(=O)n(-c3ccc(OC)c(OC)c3)c(=O)n1Cc1ccccc1C)n2C`, the activation is inactive: -12.7%.

Consider `COc1cccc(CN2CCc3nc(Nc4ccc5c(c4)OCCO5)ncc3C2)c1`, for which the activation is inactive: -30.9%.

Take `Cc1ccc2nc(N(Cc3cccnc3)C(=O)Cc3ccccc3)sc2c1`: the activation is inactive: -26.7%.

For `Cc1ccccc1Cn1c(SCc2ccc(C(=O)NC(C)c3ccccc3)cc2)nc2ccncc21` (stereo unspecified), the activation is inactive: 7.41%.

Take `CCc1ccccc1NC(=O)CCn1nc(C)c2c(C)n(-c3ccccc3)nc2c1=O`: the activation is inactive: -6.21%.

Regarding `CCOC(=O)c1ccccc1NC(=O)Cn1ncc2c([nH]c3ccccc32)c1=O`, the activation is inactive: 22%.

`COc1cccc(C2CC(=O)Nc3cc4c(cc32)OCCO4)c1OC` (stereo unspecified): the activation was inactive: -8.96%.

On to `COc1ccc(C(=O)CN2CCN(S(=O)(=O)c3ccc(C(C)C)cc3)CC2)cc1`, for which the activation is inactive: 19.8%.

As to `O=C(NCCc1cccs1)c1ccc(Cn2c(SCc3ccc(F)cc3)nc3cccnc32)cc1`, the activation is inactive: -19.5%.

In the case of `CC1CCN(c2ncnc3c2cnn3-c2ccc(F)cc2)CC1`, the activation is inactive: 26.9%.

For `CCc1ccc(-n2c(=O)c3c4c(sc3n(CC(=O)NCCCOC)c2=O)CCCC4)cc1`, the activation is inactive: -15.7%.

Take `CCc1ccc(-c2nc(CN3CCC(C(=O)NCCc4ccc(Cl)cc4)CC3)c(C)o2)cc1`: the activation was inactive: -2.86%.

As to `COc1cccc(NC(=O)c2sc3nc(C)c(C(=O)Nc4ccc(C)cc4C)c(-c4ccccc4Cl)c3c2N)c1`, the activation is inactive: -9.83%.

`NC(N)=NC(=O)Cc1c(Cl)cccc1Cl`: the activation was inactive: -3.06% and inactive: 0.0886%.
